Assay results: patent publication US20230117831

Biological target: BRD4 (Example 3, construct not stated), O60885

B1: Abl kinase (protein)
chain: MLEICLKLVGCKSKKGLSSSSSCYLEEALQRPVASDFEPQGLSEAARWNSKENLLAGPSE[about 60 residues cut from this listing]LEKHSWYHGPVSRNAAEYLLSSGINGSFLVRESESSPGQRSISLRYEGRVYHYRINTASDGKLYVSSESRFNTLAELVHHHSTVADGLITTLHYPAPKRNKPTVYGVSPNYDKWEMERTDITMKHKLGGGQYGEVYEGVWKKYSLTVAVKTLKEDTMEVEEFLKEAAVMKEIKHPNLVQLLGVCTREPPFYIITEFMTYGNLLDYLRECNRQEVNAVVLLYMATQISSAMEYLEKKNFIHRDLAARNCLVGENHLVKVADFGLSRLMTGDTYTAHAGAKFPIKWTAPESLAYNKFSIKSDVWAFGVLLWEIATYGMSPYPGIDLSQVYELLEKDYRMERPEGCPEKVYELMRACWQWNPSDRPSFAEIHQAFETMFQESSISDEVEKELGKQGVRGAVSTLLQAPELPTKTRTSRRAAEHRDTTDVPEMPHSKGQGESDPLDHEPAVSPLLPRKERGPPEGGLNEDERLLPKDKKTNLFSALIKKKKKTAPTPPKRSSSFREMDGQPERRGAGEEEGRDISNGALAFTPLDTADPAKSPKPSNGAGVPNGALRESGGSGFRSPHLWKKSSTLTSSRLATGEEEGGGSSSKRFLRSCSASCVPHGAKDTEWRSVTLPRDLQSTGRQFDSSTFGGHKSEKPALPRKRAGENRSDQVTRGTVTPPPRLVKKNEEAADEVFKDIMESSPGSSPPNLTPKPLRRQVTVAPASGLPHKEEAGKGSALGTPAAAEPVTPTSKAGSGAPGGTSKGPAEESRVRRHKHSSESPGRDKGKLSRLKPAPPPPPAASAGKAGGKPSQSPSQEAAGEAVLGAKTKATSLVDAVNSDAAKPSQPGEGLKKPVLPATPKPQSAKPSGTPISPAPVPSTLPSASSALAGDQPSSTAFIPLISTRVSLRKTRQPPERIASGAITKGVVLDSTEALCLAISRNSEQMASHSAVLEAGKNLYTFCVSYVDSIQQMRNKFAFREAINKLENNLRELQICPATAGSGPAATQDFSKLLSSVKEISDIVQR
  BRD4 phosphorylation by Abl in vitro (thio-ATP, anti-thiophosphate ester antibody): more polar linker with an average length PHICS 10.3 showed the highest level of phosphorylation
